Data reported in the supplement of paper PMC10126150.
Values marked as one replicate rest on one cluster of the flow cell; about a third of the high ones do not repeat.

tested on: ATP; assay: switch fluorescence ratio, 500 uM ATP over buffer (Cy3 cluster intensity, sum of 5 cycles each) (fold (ratio)); higher = stronger signal-on switching upon ATP binding; sequences stand for … in TCGTCGGCAGCGTCAGATGTGTATAAGAGACAGTTTTTTTTTTTTTTTTTTTTTTTTT…TC; settings: aptamer strand: ATP DNA aptamer (quencher-CACCTGGGGGAGTATTGCGGAGGAAGG + anchor), 100 nM annealed; ATP concentration: 500 uM; one replicate
Method in brief: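 The quencher-labelled ATP aptamer, at 100 nM, was annealed to Cy3-labelled switching-strand clusters on a modified Illumina MiSeq flow-cell. The clusters were imaged in selection buffer, then after 15 min with 500 uM ATP at 22 °C, and this buffer/ATP cycle ran five times with NaOH stripping and re-annealing between runs. Per-cluster fluorescence ratios, summed target-cycle over summed buffer-cycle Cy3 intensity, were averaged per switch-domain sequence. Clusters outside 100-1000 RFU were excluded.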
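Note: ATP exposure 15 min at 22 °C before imaging.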

| Sequence | switch fluorescence ratio |
| --- | --- |
| GTATGAGTGT | 0.969 |
| GTATGATCTC | 0.988 |
| GTATGGAG | 1.02 |
| GTATGTCTCG | 0.956 |
| GTATTAAATA | 0.948 |
| GTATTAGGCT | 1.01 |
| GTATTATCGT | 0.991 |
| GTATTTACGA | 0.993 |
| GTCAAAGTAA | 1.03 |
| GTCAATACAT | 1.13 |
| GTCAATAGTG | 1.05 |
| GTCAATCCTG | 1.01 |
| GTCACACATG | 1.01 |
| GTCACAGATG | 1.01 |
| GTCACCGTAA | 1.12 |
| GTCACGGGA | 1.04 |
| GTCACGGTAT | 1.12 |
| GTCACTACAA | 0.973 |
| GTCACTAGGT | 0.997 |
| GTCAGCATGG | 1.09 |
| GTCAGCTTTA | 1.02 |
| GTCAGGAGGC | 0.981 |
| GTCATACCTG | 1.01 |
| GTCATCTGCA | 1.03 |
| GTCATCTGGA | 1.01 |
| GTCATGTTGA | 0.991 |

| Sequence | switch fluorescence ratio |
| --- | --- |
| GTCATTTTAC | 1.02 |
| GTCCAAGGGA | 1.06 |
| GTCCATCTGA | 1 |
| GTCCATTTGT | 1 |
| GTCCCACCTT | 1.06 |
| GTCCCCGATG | 1.08 |
| GTCCCTTTCA | 0.95 |
| GTCCGAATGT | 1.01 |
| GTCCGACTGA | 0.992 |
| GTCCGCGTTA | 2.09 |
| GTCCGTCC | 0.994 |
| GTCCGTGCTT | 0.975 |
| GTCCTCGTAC | 1.34 |
| GTCCTTCAAT | 1.01 |
| GTCGAAAAAA | 1.04 |
| GTCGAAGCC | 0.997 |
| GTCGAATGAA | 1.02 |
| GTCGACATA | 1.03 |
| GTCGAGATAA | 0.991 |
| GTCGATCAGG | 0.995 |
| GTCGATGCAG | 0.994 |
| GTCGATTTTC | 1.01 |
| GTCGCACGTC | 0.999 |
| GTCGCAGTGG | 1.04 |
| GTCGCATGGG | 1.09 |
| GTCGCGCGGA | 0.972 |

| Sequence | switch fluorescence ratio |
| --- | --- |
| GTCGCGTTAG | 0.982 |
| GTCGCTGAGG | 0.971 |
| GTCGGAAGGC | 1.39 |
| GTCGGAGGTG | 0.948 |
| GTCGGATCAG | 0.955 |
| GTCGGCGTGG | 1.02 |
| GTCGGCTAGC | 0.993 |
| GTCGGGAACT | 1.02 |
| GTCGGGAAGC | 1.05 |
| GTCGGGATTG | 0.998 |
| GTCGGTCCAA | 1.03 |
| GTCGGTCGTG | 1 |
| GTCGTACCGA | 1.02 |
| GTCGTCATGG | 1.05 |
| GTCGTCCAGA | 0.951 |
| GTCGTCCCCA | 0.935 |
| GTCGTCTACC | 1.02 |
| GTCGTGAGG | 1 |
| GTCGTGCCAG | 0.969 |
| GTCGTGGTGC | 0.998 |
| GTCGTTAACT | 1.03 |
| GTCGTTGTAC | 1.01 |
| GTCGTTGTCA | 0.982 |
| GTCGTTGTGG | 0.994 |
| GTCTAAACGA | 0.942 |
| GTCTAAAGGC | 1.03 |

| Sequence | switch fluorescence ratio |
| --- | --- |
| GTCTACAGTT | 0.929 |
| GTCTACATG | 0.982 |
| GTCTAGACCT | 1.05 |
| GTCTCCATGT | 0.958 |
| GTCTCGGCTG | 1.02 |
| GTCTCTAGAA | 0.983 |
| GTCTCTTAAA | 1.02 |
| GTCTCTTCTT | 1.04 |
| GTCTGATTCT | 0.995 |
| GTCTGCG | 1.04 |
| GTCTTGACGT | 0.979 |
| GTGAAAATCG | 1.02 |
| GTGACCGTAT | 0.99 |
| GTGACGATAT | 1.07 |
| GTGACGTGAC | 1.25 |
| GTGACTAGT | 0.983 |
| GTGACTTTTG | 1 |
| GTGAGAATAG | 0.963 |
| GTGAGATCTG | 1.01 |
| GTGAGGACAG | 0.959 |
| GTGAGGCGCG | 1.04 |
| GTGAGGGCTA | 1.02 |
| GTGAGTCATG | 1.03 |
| GTGAGTGACT | 1.04 |
| GTGATAATAG | 1.03 |
| GTGATACAC | 1.06 |

| Sequence | switch fluorescence ratio |
| --- | --- |
| GTGATCATAA | 1.02 |
| GTGATCTACA | 0.927 |
| GTGATTATGA | 0.992 |
| GTGATTTGTA | 0.975 |
| GTGCAAAGAT | 0.997 |
| GTGCAAAGGG | 0.977 |
| GTGCAAGAA | 1.41 |
| GTGCACT | 0.992 |
| GTGCCACGGT | 0.993 |
| GTGCGAAGCA | 1.02 |
| GTGCGAAGCG | 0.982 |
| GTGCGAGTCC | 0.976 |
| GTGCGTATCT | 0.969 |
| GTGCGTTAAT | 1.01 |
| GTGCGTTGGC | 0.982 |
| GTGCTAAGTG | 1.05 |
| GTGCTCCGGG | 1.07 |
| GTGCTGAGGT | 1.04 |
| GTGCTTACGG | 0.963 |
| GTGCTTCCTG | 1.08 |
| GTGCTTGAAA | 1.03 |
| GTGGAAATTA | 0.97 |
| GTGGAAGTGT | 0.983 |
| GTGGACGACT | 0.767 |
| GTGGACTTAT | 1.02 |
| GTGGAGACTC | 1.01 |

| Sequence | switch fluorescence ratio |
| --- | --- |
| GTGGAGTTTC | 0.955 |
| GTGGATATGC | 1.01 |
| GTGGATGAGA | 0.983 |
| GTGGATGGC | 0.966 |
| GTGGCATTA | 0.987 |
| GTGGCCCTTG | 0.953 |
| GTGGCGCGTT | 0.998 |
| GTGGCGGTTC | 1.02 |
| GTGGCTAGTA | 1.07 |
| GTGGCTGCAA | 1.15 |
| GTGGCTTTTG | 0.98 |
| GTGGGAGTCT | 1.09 |
| GTGGGCAGAG | 1.01 |
| GTGGGCTATA | 0.985 |
| GTGGGGATG | 1.02 |
| GTGGTAACTA | 1.01 |
| GTGGTAGTAT | 0.983 |
| GTGGTATTGG | 0.996 |
| GTGGTATTTC | 0.992 |
| GTGGTCAAA | 0.987 |
| GTGGTCAGAG | 0.988 |
| GTGGTGCCGA | 1.03 |
| GTGGTGCTGT | 0.997 |
| GTGGTTACCC | 0.998 |
| GTGGTTAGG | 0.996 |
| GTGGTTTCTA | 1.01 |

| Sequence | switch fluorescence ratio |
| --- | --- |
| GTGTAAAGGT | 0.994 |
| GTGTACGGCT | 1.09 |
| GTGTACTGAT | 0.993 |
| GTGTAGGTGG | 0.999 |
| GTGTCCAAAC | 1.01 |
| GTGTCCGTAT | 1.02 |
| GTGTCGAAGT | 1.04 |
| GTGTCGGTAT | 1.03 |
| GTGTCTCCTT | 0.997 |
| GTGTGAGAAA | 0.985 |
| GTGTGAGGAC | 1.02 |
| GTGTGCGAAG | 0.995 |
| GTGTGCGAGC | 1.02 |
| GTGTGCGCCG | 0.997 |
| GTGTGCGTGG | 0.989 |
| GTGTGCTGGG | 0.981 |
| GTGTGCTTGG | 0.99 |
| GTGTGGAGCC | 1.01 |
| GTGTGTCAAG | 1.01 |
| GTGTTAATTT | 1.01 |
| GTGTTAGGCC | 1.02 |
| GTGTTAGTGG | 0.978 |
| GTGTTCATTG | 0.966 |
| GTGTTCCAAG | 0.985 |
| GTGTTCTTT | 0.948 |
| GTGTTGGATT | 1 |

| Sequence | switch fluorescence ratio |
| --- | --- |
| GTGTTGGTTC | 0.948 |
| GTTAAAAAAG | 0.986 |
| GTTAAAGTTA | 1.01 |
| GTTAACCTTG | 1.03 |
| GTTAACGATG | 0.96 |
| GTTAAGCTGT | 0.987 |
| GTTAAGTTCT | 1.39 |
| GTTAATATGC | 0.946 |
| GTTAATTCGG | 0.995 |
| GTTAATTGGA | 0.99 |
| GTTACAC | 1.08 |
| GTTACAGGAT | 0.985 |
| GTTACCATT | 0.967 |
| GTTACCCGGT | 0.965 |
| GTTACGATG | 0.993 |
| GTTACGGGG | 1.01 |
| GTTACGGGTA | 1.01 |
| GTTACGTAAG | 1.07 |
| GTTACTTATA | 1.04 |
